From PMC4336329 (PLoS ONE, 2015)
The campaign covered roughly 310,000 compounds. About 2,200 (0.71%) showed an effect of 50% or more. The effect is printed as a negative number. The list shows a part of the results.

What follows are molecules tested against human ether-à-go-go-related gene (hERG) potassium channel (human, UniProt Q12809) (assay: primary screen, population patch clamp on CHO cells stably expressing hERG).
Chain of human ether-à-go-go-related gene (hERG) potassium channel (Q12809 whole entry, looked up): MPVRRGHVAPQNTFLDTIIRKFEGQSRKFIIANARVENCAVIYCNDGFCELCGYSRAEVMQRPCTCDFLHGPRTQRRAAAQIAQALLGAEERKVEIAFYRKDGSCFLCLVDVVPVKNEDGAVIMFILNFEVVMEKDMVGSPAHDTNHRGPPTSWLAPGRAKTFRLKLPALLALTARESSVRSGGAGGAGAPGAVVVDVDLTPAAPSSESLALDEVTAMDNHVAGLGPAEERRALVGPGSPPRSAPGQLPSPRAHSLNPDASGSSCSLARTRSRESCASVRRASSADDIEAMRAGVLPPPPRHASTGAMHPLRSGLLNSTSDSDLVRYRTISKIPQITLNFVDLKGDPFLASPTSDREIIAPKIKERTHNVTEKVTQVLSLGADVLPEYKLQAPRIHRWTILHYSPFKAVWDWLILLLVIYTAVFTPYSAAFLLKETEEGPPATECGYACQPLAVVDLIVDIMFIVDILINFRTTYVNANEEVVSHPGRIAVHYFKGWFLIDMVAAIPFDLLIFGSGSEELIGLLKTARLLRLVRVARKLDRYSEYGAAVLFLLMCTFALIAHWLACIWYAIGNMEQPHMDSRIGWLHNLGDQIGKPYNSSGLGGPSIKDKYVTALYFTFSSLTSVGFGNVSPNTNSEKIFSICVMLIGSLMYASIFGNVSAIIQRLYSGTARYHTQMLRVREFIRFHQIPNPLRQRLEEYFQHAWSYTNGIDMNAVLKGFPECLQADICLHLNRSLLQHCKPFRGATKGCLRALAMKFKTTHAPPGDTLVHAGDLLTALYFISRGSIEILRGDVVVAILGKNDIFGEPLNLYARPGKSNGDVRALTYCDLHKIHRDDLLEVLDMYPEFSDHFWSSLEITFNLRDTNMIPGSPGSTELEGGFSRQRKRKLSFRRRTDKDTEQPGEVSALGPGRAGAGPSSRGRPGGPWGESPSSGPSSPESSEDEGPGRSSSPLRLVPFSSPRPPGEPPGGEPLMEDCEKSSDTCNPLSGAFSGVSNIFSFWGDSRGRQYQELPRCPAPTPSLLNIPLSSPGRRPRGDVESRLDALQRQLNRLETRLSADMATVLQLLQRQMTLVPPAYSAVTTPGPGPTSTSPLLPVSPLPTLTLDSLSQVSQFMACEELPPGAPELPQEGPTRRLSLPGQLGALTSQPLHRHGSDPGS

SMILES	hERG current change (%, negative = inhibition) at 1uM [%]
O=C(NC(=S)NNC(=O)c1ccco1)c1ccccc1	10.8
O=C(/C=C/c1cccc([N+](=O)[O-])c1)NCc1ccco1	-1.88
CCN(CC)CCCN(C(=O)c1ccco1)c1nc(-c2ccc(Cl)cc2)cs1.Cl	-25.5
COC(=O)c1ccc(CSCC(=O)Nc2cc(OC)cc(OC)c2)o1	6.51
CC(C)c1ccccc1-n1c(SCc2cc(=O)oc3ccc4ccccc4c23)nnc1-c1cccnc1	2.29
O=S(=O)(Nc1ccc(-c2ccc3nncn3n2)cc1)c1cccc(F)c1	14.1
COc1ccc(C(=O)NCc2ccncc2)cc1S(=O)(=O)NCc1ccc(Cl)cc1	13.7
Cc1ccc(-n2nc3ccc(NC(=O)c4ccco4)cc3n2)cc1	7.57
O=C(c1ccc(COc2ccccc2[N+](=O)[O-])o1)N1CCCCC1	-12.3
O=c1oc2c(CN3CCN(CCO)CC3)c(O)ccc2cc1-c1ccccn1	6.19
CCOc1ccc(N(CC(=O)NCc2ccc(OC)cc2)S(=O)(=O)c2c(C)noc2C)cc1	8.93
N#Cc1cc(C#N)c(N2CCN(c3ccccn3)CC2)nc1N	-8.77
Cc1ccc(NC(=O)COC(=O)Cc2c[nH]c3ccccc23)cc1C	6.36
CCc1ccc2oc(C(=O)Nc3cccnc3)c(C)c2c1	3.21
CC1CC2(CC(C)(C(=O)CSc3nc4ccccc4s3)OC2=O)C(=O)O1 (stereo not shown)	-2.98
COc1ccccc1C(=O)NC(C)C(c1cccs1)N1CCN(C)CC1 (stereo not shown)	-2.48
NC(=O)c1nsc(C(=O)N(c2ccccc2F)C(C(=O)NCc2ccc(F)cc2)c2ccc(O)cc2)c1N (stereo not shown)	4.4
O=C(O)CCCCCNc1nc(=S)[nH]c2ccccc12	5.34
COc1ccccc1C(=O)Nc1ccc2c(c1)CN(C(=O)CSC)CC2	8.72
COc1ccc(CCN=Cc2c(C)[nH]n(-c3ccc([N+](=O)[O-])cc3)c2=O)cc1OC	7
O=C(CNC(=O)c1cccc(F)c1)N/N=C/c1ccc([N+](=O)[O-])s1	7.15
CC1(C)Oc2ccc(C#N)cc2[C@@H](N2CCCC2=O)[C@@H]1O	13.3
OCC12COC3c4ccccc4C(OC1)N32 (stereo not shown)	5.71
Cc1ccc(C)c(NC(=O)Cc2nc(CCl)cs2)c1	0.823
COc1ccc(C(=O)C2CCCN(C(=O)CCNC(C)=O)C2)cc1OC (stereo not shown)	15.3
O=C(O)c1cccc(N/N=C/c2cccs2)c1	7.82
CCc1ccc(CCC(=O)Nc2ccccc2C(=O)O)o1	4.83
CCOC(=O)C1CCN(Cc2ccc(OC)c(OCc3ccccc3)c2)CC1	-8.06

SMILES	hERG current change (%, negative = inhibition) at 1uM [%]
Cc1cc(CN2CCCC(C(=O)Nc3ccc(-c4nc5ccccc5[nH]4)cc3)C2)n[nH]1 (stereo not shown)	5.6
COc1cccc(C(=O)Nc2cc(Cl)c(O)c(Cl)c2)c1	10.2
O=C(Nc1ccc(Cl)cc1Cl)C1CCC(=O)N1Cc1ccccc1Cl (stereo not shown)	0.0248
COc1ccccc1NC(=O)N(CCN1CCOCC1)Cc1cc2cc(C)cc(C)c2[nH]c1=O	-1.04
Cc1ccc(F)cc1NC(=O)C12CC3CC(C1)CC(n1cnc([N+](=O)[O-])n1)(C3)C2	-32.3
O=C(CSc1nc(Nc2ccccc2)nc(N2CCOCC2)n1)Nc1cccc([N+](=O)[O-])c1	13.6
COc1ccc(NS(=O)(=O)c2cccc(Cl)c2)cc1S(=O)(=O)N1CCCCC1	8.98
CCOC(=O)C1=C(C)Nc2ncnn2C1c1ccc2c(c1)OCO2 (stereo not shown)	2.68
O=C(O)CCCCCCC1C(=O)NC(=O)N1CCC(O)C1CCCCC1 (stereo not shown)	10
CCOC(=O)C1CCN(C(=O)Nc2ccc(Cl)cc2)CC1	2.69
CCN(CC)CCNc1cc(C)c(C#N)c2nc3ccccc3n12	1.71
C[n+]1ccn(CC(=O)c2ccc(Cl)cc2)c1.[Br-]	1.55
CN(CC(=O)Nc1ccc(S(=O)(=O)N2CCCC2)cc1)Cc1ccc(Cl)c(Cl)c1	9.27
CC1Cc2cc(S(=O)(=O)CCC(=O)N3CCN(c4ccccc4)CC3)ccc2N1C(=O)C1CC1 (stereo not shown)	6.42
COC(=O)c1cc(=O)c2c(C)nc(C(Cl)(Cl)Cl)nc2[nH]1	4.24
Cc1cc(C)c(S(=O)(=O)N2CCCOC2CNC(=O)C(=O)NCc2ccncc2)c(C)c1 (stereo not shown)	10.7
Cn1cnc2cc(NCc3ccccc3O)ccc21	12.7
CC1=NN(CCc2ccccn2)C(=O)CC1	13.8
COC(=O)C1=C(c2cc3ccccc3s2)C[C@@H]2CC[C@H]1N2C(=O)NCc1ccco1	3.26
O=C(CN1CCN(c2ccc(O)cc2)CC1)Nc1ccc(-c2ccccc2)cc1	7.08
CCc1ccc(N(C(=O)CCC(=O)Nc2cc(C)on2)C(C(=O)NC(C)(C)C)c2ccc(OC)cc2)cc1 (stereo not shown)	17.8
Cc1ccccc1NC(=O)CN1C(=O)NC2(CCc3ccccc32)C1=O (stereo not shown)	16.4
Cc1cc(C)n(CC(=O)N2CCc3ccccc32)c(=O)c1C#N	14.4
C=CCNC(=O)/C(C#N)=C/c1c(N2CCN(c3cccc(Cl)c3)CC2)nc2c(C)cccn2c1=O	11.2
CC(=O)Nc1ccc(/C=C2\Sc3ccccc3C2=O)cc1	9.42
C=CCN1C(=O)C(CC(=O)O)SC1=Nc1ccc(C(=O)O)cc1 (stereo not shown)	10.6
CC(=O)Cc1cc(=O)c2c(C)cc(O)c(C3OC(CO)C(O)C(O)C3O)c2o1 (stereo not shown)	9.83
